Laboratory results: PubChem BioAssay AID485313 (National Center for Advancing Translational Sciences (NCATS), 2010)
Hit rate of the full screen: of about 320,000 compounds, about 7,600 (2.4%) were called active. The inconclusive results got no clear call from the source; some entries with a clear call stand among them for comparison. Calls come from the whole dose curve; as a rule, active = well fitted activation curve with a large enough effect; inconclusive = small, poorly fitted or top-dose-only effect; inactive = no such curve, though single readings can be large or run the other way. Potencies beside an inconclusive call are fits to weak or partial responses and may not hold up.

experiment: qHTS Assay for NPC1 Promoter Activators; conditions: Huh7 NPC1 promoter luciferase reporter, 24 h; series mostly up to 9.22 µM; activation: at the top concentration; note: nearly all actives have a fitted effect of over 60% in size;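 for activation: reporter is driven by a mutant NPC1 promoter; % of control where 0% means no effect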
Method in brief: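 In 1536-well qHTS, Huh7 cells harboring an NPC1 promoter–luciferase construct received compound for 24 h; activation was quantified by luminescence following luciferase reagent addition.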
Potency is the fitted concentration of half-maximal effect; tags give direction and shape of the fitted curve.

activation, inactive:
CCN(Cc1cccs1)C(=O)CN1C(=O)NC2(CCCc3ccccc32)C1=O (stereo not drawn) -0.773%
O=C(O)c1ccc(N/N=C/C=C/c2ccc([N+](=O)[O-])o2)cc1 -2.28%
O=c1cnnc(N/N=C/C2CC=CCC2)[nH]1 (stereo not drawn) -0.552%
CC(C)CS(=O)(=O)C1=NN2C(=N)/C(=C\c3ccc(OC(=O)c4ccco4)cc3)C(=O)N=C2S1 -4.09%
CC(=O)N1CCCN(Cc2cn(-c3cc(C)ccc3C)nc2-c2ccccc2)CC1 -1.82%
C/C=C\C=C\C(=O)N1CC2(CC(c3cccc(NC(=O)CC(c4ccccc4)c4ccccc4)c3)=NO2)C[C@H]1C(N)=O (stereo partly drawn) -4.76%
CC(=O)Nc1cccc(C(=O)NC2CCCc3c2cnn3-c2ccc(C(C)(C)C)cc2)c1 (stereo not drawn) 0.447%
O=C(c1ccc(-c2ccc([N+](=O)[O-])cc2)o1)N1CCCC(C(F)(F)F)C1 (stereo not drawn) 15.1%
Cc1cccn2cc(CCNS(=O)(=O)c3cccs3)nc12 -2.55%
CCCCC12CN3CCN(CC(C3)/C1=N\NC(=O)Nc1ccccc1)C2 0.102%
CC(=O)c1c(C)[nH]c(C(=O)OCC(=O)N2CCN(S(=O)(=O)c3ccc(C)cc3C)CC2)c1C -1.34%
CC1=C(C(=O)OCc2ccc3c(c2)OCO3)C(c2ccccc2OCc2ccccc2)NC(=O)N1 (stereo not drawn) 7.48%
COc1ccc(CNC(=O)/C(C#N)=C2\N=C(NC(=O)c3cccs3)c3ccccc32)cc1 0.805%
COc1ccc(NC(=O)CN(C)C(=O)c2cccc(S(=O)(=O)Nc3ccc(OC)cc3)c2)cc1 -0.228%
COc1ccc(NC(=O)c2cc(-c3cc(C)ccc3O)n[nH]2)cc1Cl 9.31%
CCN(CCN1CCCC1)C(=O)c1cc(COc2ccccc2SC)on1 1.98%
Oc1ccc(-c2cnns2)c(O)c1 -27.1%
O=C(NNC(=O)c1cc2ccccc2o1)c1ccc(Cl)cc1 1.17%
Cc1ccc(CNS(=O)(=O)c2c(C(=O)N3CCCCCC3)c(C)n(C)c2C)cc1 1.47%
COc1ccccc1N1CCN(CC(=O)Nc2nccs2)CC1 -2.3%
COc1ccccc1/C=C1\CCCC2=C1Nc1nnnn1C2c1ccccc1OC (stereo not drawn) -1.56%
CN(C)CCNC(=O)C(=O)C1C(=O)Nc2ccccc21 (stereo not drawn) -0.155%
C=C1CCN([C@@H](C)C(=O)NCc2ccc(Cl)cc2)S(=O)(=O)c2ccccc21 -1.43%
CCOc1ccc(S(=O)(=O)N2CCC(C(=O)Nc3cc(S(C)(=O)=O)ccc3Cl)CC2)cc1 -4.73%
Cc1cnc(C(=O)OCc2csc(CC(=O)Nc3ccccc3C)n2)cn1 1.19%

Potency, inconclusive:
Cc1cc(NO)nc(-c2ccc(Br)cc2)n1 3.55 µM [activator, partial curve]
Cc1cc(C)nc(Nc2n[nH]c(COc3ccccc3)n2)n1 3.16 µM [activator, partial curve]
COc1ccc(OCc2cc(C(=O)NC(C)c3cnn(C)c3)no2)c(Cl)c1 (stereo not drawn) 4.47 µM [activator, partial curve]
CN(C)c1ccc(C(=O)/C=C/c2cccnc2)cc1 2.82 µM [activator, partial curve]
Cc1ccc(C(=O)C(NC(=O)c2ccco2)N2CCOCC2)cc1 (stereo not drawn) 2.82 µM [activator, partial curve]
C/C(=N/NC(=O)OC(C)(C)C)c1ccco1 3.55 µM [activator, partial curve]
CCOc1ccc(NC(=O)Nc2cc(C)on2)cc1 3.16 µM [activator, partial curve]
Cc1cccc(C2Nc3cccc4cccc(c34)N2)c1 2.82 µM [activator, partial curve]
COCCN(C(=O)Cc1cccs1)C(C(=O)NC1CCCC1)c1cc(OC)c(OC)c(OC)c1 (stereo not drawn) 3.55 µM [activator, partial curve]
CCC(=O)NCCc1nc2cc(NC(=O)c3cccs3)ccc2n1C 2.51 µM [activator, partial curve]
COC(=O)c1cccc(N(CC(=O)NC2CCCC2)C(=O)CNC(=O)c2cccs2)c1 0.891 µM [activator, single point]
CC(=O)Nc1ccc(-c2csc(NCCc3ccccc3)n2)cc1 3.55 µM [activator, partial curve]
O=C(OC1CCCCC1)c1ccc(NC(=O)c2ccco2)cc1 2.51 µM [activator, partial curve]
COc1cccc2c1CCc1c-2nc2ccccc2c1C(=O)O 3.55 µM [activator, partial curve]
Cc1csc(Nc2nc(N)c(C(=O)Nc3ccccc3)o2)n1 5.62 µM [activator, single point]
O=C(Nc1ccccn1)c1ccc(S(=O)(=O)N2CCCCCC2)cc1 2 µM [activator, partial curve]
COc1ccc(SC[C@H](CC(C)C)N2CCN(C)CCC2=O)cc1 4.47 µM [activator, single point]
Cc1cc(C)nc(NC(=O)Nc2ccc(F)cc2F)n1 2.51 µM [activator, partial curve]
COC(=O)c1ccc(COc2ccc(CNCc3ccc(Cl)cc3)cc2)cc1 1 µM [activator, full curve, poor fit]
Cc1ccc(-c2nc3ccccc3c(=O)o2)cc1 2.24 µM [activator, partial curve]
Cc1cccc(Cc2nnc(CCC(=O)N(CC3CC3)CC3CCCO3)o2)c1 (stereo not drawn) 3.55 µM [activator, single point]
O=C(COc1ccccc1)Nc1nnc(-c2ccc3c(c2)CCCC3)o1 3.55 µM [activator, partial curve]
O=C1c2ccccc2C(=O)c2c1cccc2N1CCOCC1 3.16 µM [activator, single point]
N#CCC(=O)Nc1nc(-c2ccc3c(c2)OCCO3)cs1 3.16 µM [activator, partial curve]
c1ccc(CSc2ncnc3c2cnn3-c2ccccc2)cc1 3.55 µM [activator, single point]
COc1ccc(OC)c(-c2csc(NC(=O)c3ccc(F)cc3)n2)c1 1.26 µM [activator, single point]
COc1ccc2c(=O)c(C(=O)NCCc3ccccc3)c[nH]c2c1 5.62 µM [activator, single point]
COc1cc(/C=C2\SC(=S)N(CC(=O)O)C2=O)ccc1OC(=O)c1ccco1 3.16 µM [activator, single point]
COc1cccc(NC(=O)CC(=O)c2ccc([N+](=O)[O-])cc2)c1 3.16 µM [activator, partial curve]
C/C(N)=C(/C#N)C(=O)CSc1nc2ccccc2[nH]1 3.98 µM [activator, partial curve]
O=C(O)c1cncc(C#CCC2CCCCC2)c1 5.01 µM [activator, partial curve, poor fit]
Cc1ccc(NC(=O)Nc2nnc(-c3ccccc3F)s2)cc1 3.16 µM [activator, partial curve]
CCOc1ccc(C(=O)Nc2cccc(C(=O)O)c2)cc1Cl 0.1 µM [activator, full curve]
CN(C(=O)CSc1cn(CC(=O)N2CCOCC2)c2ccccc12)c1ccccc1 1.26 µM [activator, single point]
Cc1ccc2c(CC(=O)Nc3ccc(N4CCN(C)CC4)cc3C)coc2c1 5.62 µM [activator, single point]
O=C1NC(c2cccc(Br)c2)=N/C1=C\c1ccco1 4.47 µM [activator, partial curve]
COc1cccc2sc(NC(=O)c3ccc(Br)s3)nc12 3.16 µM [activator, single point]
CC(C)C(=O)Nc1nc2cc3c(cc2s1)OCO3 2.51 µM [activator, partial curve]

Potency, active:
O=C(Nc1ccc(N2CCCC2=O)cc1)c1cccc(F)c1 1.58 µM
NC(=O)c1sc2nc(-c3ccccc3)ccc2c1N 1.78 µM
COc1ccc(-c2cc(C(=O)NCC(C)C)no2)cc1 1.41 µM
Cc1cccc2nc(COc3ccc4ccccc4c3Br)cn12 3.55 µM
CSc1ccc(/C=N/Nc2ccc(Cl)c(C(=O)O)c2)cc1 0.1 µM
CC(C)c1ccc(/C=C/c2ccc(=O)n(C)n2)cc1 2.24 µM
O=C(CSc1nnc(-c2ccccn2)o1)Nc1ccc(F)cc1 2 µM
CCOc1ccc(N2C(=O)c3ccccc3C2O)cc1 (stereo not drawn) 3.16 µM
Cc1ccc(-n2cc(C(=O)c3ccccc3O)cn2)cc1 0.562 µM
Clc1ccc(/C(Cc2nc3ccccc3[nH]2)=N\Nc2ccccc2)cc1 3.55 µM
Clc1ccc(-c2nsc(N3CCOCC3)n2)c(Cl)c1 0.794 µM
CN1CCN(C(=O)c2cc(COc3ccccc3)on2)[C@@H](c2ccccc2)C1 3.55 µM
CCOc1cccc(/C=C/c2cc(C(=O)O)c3ccccc3n2)c1OC 2 µM
O=C(COc1ccc(Cl)cc1Br)NC(=O)NC1CCCC1 3.55 µM
Cn1c(C(=O)Nc2ccc3c(c2)OCCO3)cc2sccc21 1.26 µM
